# Data: the supplement of paper PMC12067093, “Discovery and optimisation of a covalent ligand for TRIM25 and its application to targeted protein ubiquitination” (Chemical Science, 2025)
# Targets with the largest changes are over-represented here; the source holds about 21,000 in all.
# Compound: CC1Cc2ccccc2N1C(=O)C1CCCN(C1)C(=O)CCl (mixture of isomers) [TRIM25 ligand 11 (diastereomer mixture)]
# Assay: probe-labelled cysteine peptide fold change vs DMSO (competition) (log2 fold change); higher = less target engagement (more negative = stronger competition)
# Conditions: THP-1, incubation time: 4 h
# 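Note: competitive chemoproteomic profiling in live THP-1 cells with an iodoacetamide desthiobiotin (IA-DTB) probe, comparing probe-labelled peptide intensities in compound-treated cells against DMSO-treated controls.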
# UniProt P20073, sequence (P20073 whole entry, looked up): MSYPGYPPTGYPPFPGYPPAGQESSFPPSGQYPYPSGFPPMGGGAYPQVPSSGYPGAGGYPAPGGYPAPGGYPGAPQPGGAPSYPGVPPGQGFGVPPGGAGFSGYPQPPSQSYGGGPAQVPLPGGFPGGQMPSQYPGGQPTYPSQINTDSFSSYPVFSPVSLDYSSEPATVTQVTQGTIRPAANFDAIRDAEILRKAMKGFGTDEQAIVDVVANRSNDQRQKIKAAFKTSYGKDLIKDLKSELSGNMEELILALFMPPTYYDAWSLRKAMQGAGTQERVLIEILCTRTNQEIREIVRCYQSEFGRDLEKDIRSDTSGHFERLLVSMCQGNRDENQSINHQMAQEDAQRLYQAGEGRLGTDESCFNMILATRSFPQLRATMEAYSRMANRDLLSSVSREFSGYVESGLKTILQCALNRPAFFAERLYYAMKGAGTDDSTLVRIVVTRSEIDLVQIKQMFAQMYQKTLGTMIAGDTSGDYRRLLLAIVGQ
# UniProt O43865, sequence (O43865 whole entry, looked up): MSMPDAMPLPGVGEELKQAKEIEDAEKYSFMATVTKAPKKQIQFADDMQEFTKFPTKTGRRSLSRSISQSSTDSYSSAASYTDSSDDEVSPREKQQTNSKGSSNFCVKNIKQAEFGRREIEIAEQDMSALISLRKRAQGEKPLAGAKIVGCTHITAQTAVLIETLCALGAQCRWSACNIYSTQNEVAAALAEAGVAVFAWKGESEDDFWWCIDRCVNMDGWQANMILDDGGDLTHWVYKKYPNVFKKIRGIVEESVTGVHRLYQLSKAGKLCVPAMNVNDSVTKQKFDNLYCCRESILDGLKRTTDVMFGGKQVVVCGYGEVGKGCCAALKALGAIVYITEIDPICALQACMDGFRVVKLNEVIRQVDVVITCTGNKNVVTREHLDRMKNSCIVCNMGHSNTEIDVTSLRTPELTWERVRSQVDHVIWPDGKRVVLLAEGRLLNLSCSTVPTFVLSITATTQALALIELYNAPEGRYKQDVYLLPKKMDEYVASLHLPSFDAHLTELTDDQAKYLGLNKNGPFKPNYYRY
# UniProt P35573, sequence (P35573 whole entry, looked up): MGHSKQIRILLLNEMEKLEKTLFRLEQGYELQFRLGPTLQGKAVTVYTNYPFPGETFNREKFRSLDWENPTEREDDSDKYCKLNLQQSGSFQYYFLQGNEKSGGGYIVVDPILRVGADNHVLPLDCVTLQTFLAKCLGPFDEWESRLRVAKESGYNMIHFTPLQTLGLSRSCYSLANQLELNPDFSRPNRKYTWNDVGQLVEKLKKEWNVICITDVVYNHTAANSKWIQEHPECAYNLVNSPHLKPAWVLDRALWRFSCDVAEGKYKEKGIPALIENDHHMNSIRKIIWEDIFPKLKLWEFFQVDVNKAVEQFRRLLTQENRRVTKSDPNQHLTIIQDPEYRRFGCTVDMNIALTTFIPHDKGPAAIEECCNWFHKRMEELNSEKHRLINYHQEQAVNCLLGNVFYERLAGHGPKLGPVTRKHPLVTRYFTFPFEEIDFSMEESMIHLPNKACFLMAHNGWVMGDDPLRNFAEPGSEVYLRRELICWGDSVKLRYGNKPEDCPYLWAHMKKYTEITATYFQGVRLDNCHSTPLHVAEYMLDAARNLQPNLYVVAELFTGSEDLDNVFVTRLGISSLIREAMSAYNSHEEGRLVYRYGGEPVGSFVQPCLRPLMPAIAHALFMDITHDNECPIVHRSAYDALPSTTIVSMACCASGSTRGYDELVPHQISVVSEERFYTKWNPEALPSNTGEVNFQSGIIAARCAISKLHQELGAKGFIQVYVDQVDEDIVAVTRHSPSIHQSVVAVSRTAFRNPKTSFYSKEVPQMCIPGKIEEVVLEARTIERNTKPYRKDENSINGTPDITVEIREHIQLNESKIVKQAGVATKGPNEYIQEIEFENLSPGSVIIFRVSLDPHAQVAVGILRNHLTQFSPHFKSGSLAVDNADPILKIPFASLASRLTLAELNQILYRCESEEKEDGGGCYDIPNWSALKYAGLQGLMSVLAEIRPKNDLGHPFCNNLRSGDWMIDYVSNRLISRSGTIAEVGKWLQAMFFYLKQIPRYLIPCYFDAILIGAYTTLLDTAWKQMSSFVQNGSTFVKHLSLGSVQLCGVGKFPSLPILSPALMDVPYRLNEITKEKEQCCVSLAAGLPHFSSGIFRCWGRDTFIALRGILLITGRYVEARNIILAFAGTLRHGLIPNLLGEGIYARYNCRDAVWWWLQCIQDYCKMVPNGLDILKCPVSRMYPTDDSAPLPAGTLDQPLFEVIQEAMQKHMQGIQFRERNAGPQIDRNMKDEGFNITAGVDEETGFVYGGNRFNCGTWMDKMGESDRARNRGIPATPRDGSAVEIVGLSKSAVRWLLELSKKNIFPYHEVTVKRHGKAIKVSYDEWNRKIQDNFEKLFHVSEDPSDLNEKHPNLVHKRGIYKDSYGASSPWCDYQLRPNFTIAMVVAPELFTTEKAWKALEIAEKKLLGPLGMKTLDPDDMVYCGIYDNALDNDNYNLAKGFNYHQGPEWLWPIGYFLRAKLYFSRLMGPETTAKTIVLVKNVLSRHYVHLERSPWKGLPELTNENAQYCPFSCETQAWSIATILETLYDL
# UniProt Q9NP73, sequence (Q9NP73 whole entry): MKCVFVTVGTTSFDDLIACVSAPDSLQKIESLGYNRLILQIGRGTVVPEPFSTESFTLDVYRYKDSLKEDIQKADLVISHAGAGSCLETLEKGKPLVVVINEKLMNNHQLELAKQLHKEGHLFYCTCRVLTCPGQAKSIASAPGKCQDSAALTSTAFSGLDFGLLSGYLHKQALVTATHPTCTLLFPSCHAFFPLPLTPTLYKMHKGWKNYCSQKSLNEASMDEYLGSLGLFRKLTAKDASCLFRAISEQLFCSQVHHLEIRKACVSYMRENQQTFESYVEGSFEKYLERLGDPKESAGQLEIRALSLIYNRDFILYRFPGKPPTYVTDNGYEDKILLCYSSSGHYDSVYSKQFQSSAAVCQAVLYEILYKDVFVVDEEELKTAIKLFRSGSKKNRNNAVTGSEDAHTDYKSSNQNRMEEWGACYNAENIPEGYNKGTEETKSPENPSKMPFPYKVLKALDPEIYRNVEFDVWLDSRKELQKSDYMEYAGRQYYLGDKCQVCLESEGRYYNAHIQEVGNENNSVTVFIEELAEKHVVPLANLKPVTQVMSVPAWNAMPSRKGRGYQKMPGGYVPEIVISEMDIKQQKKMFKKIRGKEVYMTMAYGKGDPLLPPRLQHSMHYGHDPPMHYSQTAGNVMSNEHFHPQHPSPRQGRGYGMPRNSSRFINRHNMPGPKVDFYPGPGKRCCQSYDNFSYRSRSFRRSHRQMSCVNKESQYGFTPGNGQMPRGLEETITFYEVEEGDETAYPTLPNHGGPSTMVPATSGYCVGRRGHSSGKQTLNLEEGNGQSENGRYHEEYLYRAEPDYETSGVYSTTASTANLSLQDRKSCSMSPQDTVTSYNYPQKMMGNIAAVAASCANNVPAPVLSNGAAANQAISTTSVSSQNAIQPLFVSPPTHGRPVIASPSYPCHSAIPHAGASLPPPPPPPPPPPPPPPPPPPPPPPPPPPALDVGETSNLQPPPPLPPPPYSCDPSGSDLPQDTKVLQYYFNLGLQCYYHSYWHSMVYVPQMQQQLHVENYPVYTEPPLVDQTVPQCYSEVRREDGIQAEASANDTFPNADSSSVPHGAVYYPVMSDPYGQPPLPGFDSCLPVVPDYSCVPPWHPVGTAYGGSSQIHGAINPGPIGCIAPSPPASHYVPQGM
# UniProt Q8N8R7, sequence (Q8N8R7 whole entry, looked up): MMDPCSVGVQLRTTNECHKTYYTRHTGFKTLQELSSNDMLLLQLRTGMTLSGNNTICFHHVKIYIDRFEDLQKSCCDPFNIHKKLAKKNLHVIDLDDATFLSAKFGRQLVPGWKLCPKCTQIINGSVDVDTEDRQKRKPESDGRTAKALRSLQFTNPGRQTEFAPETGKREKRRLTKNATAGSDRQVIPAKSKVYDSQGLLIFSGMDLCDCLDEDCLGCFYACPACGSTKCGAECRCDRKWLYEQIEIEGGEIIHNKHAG
# UniProt P21281, sequence (P21281 whole entry, looked up): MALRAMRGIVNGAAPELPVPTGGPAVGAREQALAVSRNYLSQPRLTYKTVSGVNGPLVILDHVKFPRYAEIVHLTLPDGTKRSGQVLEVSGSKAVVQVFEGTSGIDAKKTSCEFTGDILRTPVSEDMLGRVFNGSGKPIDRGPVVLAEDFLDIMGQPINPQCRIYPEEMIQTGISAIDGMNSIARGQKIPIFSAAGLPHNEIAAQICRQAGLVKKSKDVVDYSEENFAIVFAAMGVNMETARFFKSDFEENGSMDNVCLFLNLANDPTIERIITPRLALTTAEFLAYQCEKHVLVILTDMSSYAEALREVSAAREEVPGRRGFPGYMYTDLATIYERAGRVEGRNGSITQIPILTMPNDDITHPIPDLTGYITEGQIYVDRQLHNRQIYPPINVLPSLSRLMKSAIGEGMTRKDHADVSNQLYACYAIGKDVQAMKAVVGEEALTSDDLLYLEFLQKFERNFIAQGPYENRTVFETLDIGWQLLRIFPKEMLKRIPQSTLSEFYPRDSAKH
# UniProt P53004, sequence (P53004 whole entry, looked up): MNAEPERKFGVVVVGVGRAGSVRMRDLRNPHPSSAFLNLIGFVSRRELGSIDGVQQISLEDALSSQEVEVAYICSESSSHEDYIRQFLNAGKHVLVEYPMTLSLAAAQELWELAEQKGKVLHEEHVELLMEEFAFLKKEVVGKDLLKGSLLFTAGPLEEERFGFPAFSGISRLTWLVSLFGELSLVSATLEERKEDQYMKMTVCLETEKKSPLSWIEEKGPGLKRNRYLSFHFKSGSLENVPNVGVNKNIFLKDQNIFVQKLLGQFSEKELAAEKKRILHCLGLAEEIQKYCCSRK
Target,probe-labelled cysteine peptide fold change (10 µM),probe-labelled cysteine peptide fold change (50 µM)
AHCYL1_O43865_292+293_QKFDNLYCCR (UniProt O43865),-0.0193,-0.0771
ARHGEF18_Q6ZSZ5_887_SAMSEIEGIQSLICR (UniProt Q6ZSZ5),-0.0479,0.0618
BLVRA_P53004_204_MTVCLETEK (UniProt P53004),0.159,0.0873
ANXA7_P20073_413_TILQCALNRPAFFAER (UniProt P20073),0.0362,0.0988
AGL_P35573_126_VGADNHVLPLDCVTLQTFLAK (UniProt P35573),-0.0129,0.0562
ANKRD50_Q9ULJ7_122_AQDSDTLCVGGFIR (UniProt Q9ULJ7),-0.399,-0.88
ARL14EP_Q8N8R7_57_TGMTLSGNNTICFHHVK (UniProt Q8N8R7),0.0953,0.00312
BLM_P54132_396_LLDCGNELLQQR (UniProt P54132),-0.00656,-0.235
ATP1A1_P05023_663_ACVVHGSDLK (UniProt P05023),0.205,-0.125
ALG13_Q9NP73_86_ADLVISHAGAGSCLETLEK (UniProt Q9NP73),0.371,-0.0635
BIRC6_Q9NR09_1293_GCDLLQEVSVTIR (UniProt Q9NR09),0.219,0.16
ANKLE1_Q8NAG6_124_DQDGLRPLDLALQQGHLECAR (UniProt Q8NAG6),0.0735,-0.0476
ATP6V1B2_P21281_112_TSCEFTGDILR (UniProt P21281),-0.0159,-0.117
ANKLE1_Q8NAG6_517_KQPHQACPK (UniProt Q8NAG6),0.172,0.182
